In PubChem BioAssay AID1347073 (National Center for Advancing Translational Sciences (NCATS), 2019):
The whole screen tested about 45,000 compounds, of which about 200 (0.44%) were called active. Another 7% or so got no clear call; they are omitted. The call rests on the fitted dose curve; in most records, active means well fitted activation curve with a large enough effect; inconclusive means small, poorly fitted or top-dose-only effect; inactive means no such curve, though single readings can be large or run the other way. The list shows a part of the results.

assay: qHTS of TDP-43 Inhibitors: NCGC Sytravon Library Screen; conditions: yeast TDP-43 toxicity rescue, BacTiter-Glo growth, 24 h; series mostly up to 46.1 µM; growth rescue (activation): at the top concentration; further: nearly all actives have a fitted effect of over 55% in size; on growth rescue (activation): 0% is about no effect
Summary of the method: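 TDP-43-expressing yeast, pregrown in raffinose, seeded at OD600 0.02 in galactose medium with compound for 24 hr at 30 deg C. Growth read by BacTiter-Glo luminescence, so rescue of toxicity appears as activation.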
Potency means the concentration at half of the fitted maximal effect.

Compound	growth rescue (activation)	Potency
COc1cccc(Oc2coc3c(CN4CCOCC4)c(O)ccc3c2=O)c1	inactive: -6.56%	–
O=C1c2ccccc2C(=O)c2c1cccc2N1CCN(C/C=C/c2ccccc2)CC1	inactive: 24.5%	–
CC(C)Oc1ccc(C(=O)NCC(=O)O)cc1	inactive: 27.3%	–
CCOC(=O)c1ccc(S(=O)(=O)NNC(=O)COc2cccc(C)c2)cc1	inactive: 0.917%	–
CCCCOC(=O)NCN1C(=O)C2C3C=CC(C3)C2C1=O (stereo not given)	inactive: 20.6%	–
O=C(Nc1ccc(Cl)cc1)c1ccc(S(=O)(=O)N2CCOCC2)cc1	inactive: 3.16%	–
Cc1ccc(S(=O)(=O)N(C)C)cc1NC(=O)COC(=O)c1ccc2c(c1)OCO2	inactive: 10.3%	–
O=S(=O)(c1ccc(Cl)cc1)N1CCN(C(=S)NCC2CCCO2)CC1 (stereo not given)	inactive: -7.38%	–
C/C(=N\Nc1cccc(C(=O)O)c1)c1ccc(Cl)s1	inactive: -91.8%	–
CC(=O)Nc1ccc(NC(=O)CS(=O)(=O)Cc2ccccc2)cc1	inactive: 5.66%	–
Cc1cc2c(cc1C)NC(c1cccnc1)C1=C(CC(C)(C)CC1=O)N2 (stereo not given)	inactive: 20.6%	–
CC(C)NS(=O)(=O)c1ccc(CCC(=O)Nc2ccc3c(c2)OCCO3)cc1	inactive: 4.97%	–
COc1cccc(OC2OC3COC(C)(C)OC3C(O)C2NC(C)=O)c1 (stereo not given)	inactive: -2.89%	–
COCCCNC(=S)NNC(=O)Cn1nc(C)c(Br)c1C	inactive: 15.9%	–
OCCC1CN(Cc2cnc(-c3ccc(Cl)cc3)nc2)CCN1C1CCCC1 (stereo not given)	inactive: 25.1%	–
COc1ccc(/C=C(\C#N)C(=O)OCC(=O)Nc2c(C)cccc2C(C)C)cc1	inactive: -3.26%	–
O=C(NC1CCCc2ccccc21)c1ccc(Br)cc1 (stereo not given)	inactive: 15.3%	–
COc1ccccc1-c1cc(C(=O)Nc2cccnc2Cl)no1	inactive: -7.32%	–
CCN1CCN(C(c2cccc(OC)c2)c2sc3nc(C)nn3c2O)CC1 (stereo not given)	inactive: -1.57%	–
CCOC(=O)CCC(=O)NNC(=O)c1ccc(NC(=O)c2ccccc2)cc1	inactive: -3.32%	–
CNc1cncc(-c2ccc(OC)c(OC)c2)n1	–	active: 11.2 µM
COc1cc2c(cc1OC)CN(c1ccc(C(N)=O)cc1[N+](=O)[O-])CC2	inactive: 23.2%	–
O=C(CN1CCNCC1)NCCSc1ccc(Cl)cc1	inactive: -9.13%	–
COc1ccccc1S(=O)(=O)Nc1ccc(-c2nnc3n2CCCCC3)cc1	inactive: 10.4%	–
COc1ccc(CN2CCNC(=O)C2CC(=O)N(C)Cc2ccon2)c(OC)c1 (stereo not given)	inactive: 3.65%	–
O=C(CNc1cc(S(=O)(=O)N2CCCC2)ccc1OCC(F)(F)F)Nc1cccc(C(F)(F)F)c1	inactive: 8.87%	–
CCOc1cc(NC(=O)CCl)c(OCC)cc1NC(=O)CCl	inactive: 6.14%	–

Compound	growth rescue (activation)	Potency
Oc1ccc(/C=N/Nc2nc(-c3ccc(Cl)cc3)cc(C(F)(F)F)n2)cc1	inactive: 12.7%	–
CCCn1c(N)c(N(CCOC)C(=O)CSc2cc(C)c3ccccc3n2)c(=O)[nH]c1=O	inactive: 5.62%	–
Cc1ccccc1NC(=S)N(CCN(C)C)C(C)c1ccco1 (stereo not given)	inactive: 28.2%	–
Cc1cccc(N2CCN(C(=O)c3ccc4c(c3)N(Cc3ccccc3)C(=O)c3ccccc3S4(=O)=O)CC2C)c1 (stereo not given)	inactive: 27.9%	–
Cc1ccc(-c2nc(S(=O)(=O)c3ccc(C)cc3)c(SCC(N)=O)o2)cc1	inactive: 16.3%	–
CCOC(=O)CC(NC(=O)Cn1nnc(-c2ccccc2Cl)n1)c1ccc(OC)cc1 (stereo not given)	inactive: -1.99%	–
CC1CCCCC1NC(=O)CN(C)S(=O)(=O)c1cccc2cccnc12 (stereo not given)	inactive: 4.03%	–
CC1CN(S(=O)(=O)c2cccc(C(=O)Nc3ccc(S(=O)(=O)Nc4ncccn4)cc3)c2)CC(C)O1 (stereo not given)	inactive: -8.81%	–
CC(=O)c1ccc(OC2(C)CCN(Cc3cc4ccccc4[nH]3)C2)cc1 (stereo not given)	inactive: 9.82%	–
CCOc1ccc(N2CC(C(=O)N3CC(C)OC(C)C3)CC2=O)cc1 (stereo not given)	inactive: -7.52%	–
CC1(CCl)N([O-])C2=C(CCCC2)[N+]1=O (stereo not given)	inactive: -6.76%	–
O=S1(=O)CCC(NC(=S)Nc2ccc3ccccc3c2)C1 (stereo not given)	inactive: 6.66%	–
CC1(c2ccc(OC(F)F)cc2)NC(=O)N(CC(=O)Nc2ccc(S(N)(=O)=O)cc2)C1=O (stereo not given)	inactive: -8.83%	–
Cc1nn(-c2ccccc2)c(C)c1/C=N/NC(=O)CSc1nc2ccccc2c(=O)n1-c1ccccc1	inactive: -1.34%	–
O=[N+]([O-])c1ccc(-c2csc(NN=C3CCCC3)n2)cc1	inactive: 28.5%	–
NC(=O)CSc1nnc(Cc2ccc3c(c2)OCO3)o1	inactive: -7.08%	–
Cc1ccc(NC(=O)CN(C)C(=O)c2cn(Cc3ccccc3)nc2-c2cccnc2)cc1	inactive: 4.23%	–
Cc1ccccc1-c1cnc(C(O)c2ccc(F)cc2)[nH]1 (stereo not given)	inactive: 13.4%	–
CC(Sc1nc(C(C)(C)C)cc(-c2ccccc2)c1C#N)C(=O)Nc1ccccc1 (stereo not given)	inactive: 5%	–
CCOc1ccc2nc(NC(=O)/C=C/c3ccc4c(c3)OCO4)sc2c1	inactive: -3.04%	–
Cc1ccnc(NC(=O)CCS(=O)(=O)c2ccccc2)c1	inactive: 6.65%	–
c1ccc(NNC2=NCCS2)cc1	inactive: -2.79%	–
Cc1c(C(=O)Nc2ccccc2[N+](=O)[O-])csc1-c1ccccc1	inactive: 17.1%	–
CCCNC(=O)C1(C)CCN(C(=O)COCc2ccccc2)C1 (stereo not given)	inactive: -7.22%	–
COC(=O)c1ccc(CNC(=O)COC(=O)Cc2ccsc2)cc1	inactive: -1.48%	–
Cc1cc(NC(=O)CCN2C(=O)/C(=C\c3ccccc3Cl)SC2=S)no1	inactive: -0.162%	–
Cc1ccsc1C(=O)N1CCCC(CO)(Cc2ccccc2F)C1 (stereo not given)	inactive: 27.8%	–

Compound	growth rescue (activation)	Potency
Cc1cccc(N2CCN(C(=O)c3ccc(S(=O)(=O)N(C)c4ccccc4)cc3)CC2)c1C	inactive: 4.23%	–
CN(C)S(=O)(=O)c1cccc(C(=O)NCC(=O)NC2CCN(Cc3ccccc3)CC2)c1	inactive: -12.8%	–
COc1ccc(C(=O)NC(=S)Nc2cc(C)ccn2)cc1[N+](=O)[O-]	inactive: -5.07%	–
CC(C)(C)c1ccc(O)c(N=Cc2cc3c(cc2[N+](=O)[O-])OCO3)c1	inactive: -2.89%	–
CSCCC(NC(=O)c1ccc(Cl)cc1)C(=O)OCC(=O)c1ccc[nH]1 (stereo not given)	inactive: 27.1%	–
COc1ccc(C(=O)C2CCCN(Cc3cn[nH]c3-c3ccc(F)cc3)C2)cc1OC (stereo not given)	inactive: 8.76%	–
O=C(O)/C=C\C(=O)N1CCc2ccccc21	inactive: 23.7%	–
CN1CCN(CC(=O)Nc2c(C(=O)c3ccccc3)oc3ccccc23)CC1	inactive: -3.9%	–
COc1ccc(N/C=C(\C#N)c2ccc(OCCCF)cc2)cc1	inactive: 38.2%	–
CCOc1ccc(S(=O)(=O)NCc2ccc(C)cc2)c2cccnc12	inactive: 30.4%	–
CC(C)NC(=O)NC(=O)COC(=O)CCCSc1nc2ccccc2s1	inactive: -0.528%	–
NC(Cc1ccccc1)c1csc(Nc2ccc(C(=O)NCCCO)cn2)n1 (stereo not given)	inactive: 5.91%	–
COc1ccc(Cl)cc1NC(=S)N1CCN(c2ncccn2)CC1	inactive: 23.5%	–
O=C(O)COc1ccccc1/C=N/Nc1ccc(S(=O)(=O)N2CCOCC2)cc1[N+](=O)[O-]	inactive: -2.96%	–
CC(C)c1csc(CN2CCC(CO)(Cc3ccccc3)CC2)n1	inactive: 12%	–
COC(=O)CSc1nc2c(c(=O)n(C)c(=O)n2C)n1CCCc1ccccc1	inactive: 1.28%	–
COc1ccc(F)cc1-c1cc(C(=O)NCc2cccc(C(F)(F)F)c2)[nH]n1	inactive: 22.4%	–
N#CC(C#N)=C(Nc1ccc(F)cc1)SCc1cccc(Br)c1	inactive: -79.3%	–
Cc1ccc2c(COC(=O)c3ccccc3Br)cc(=O)oc2c1	inactive: -8.55%	–
Cc1cc(C(=O)COc2ccc3ccc(=O)oc3c2)c(C)n1Cc1cccs1	inactive: -3.28%	–
CCNC(=O)NC(=O)C(C)Sc1ccc2c(c1)OCCO2 (stereo not given)	inactive: 33.1%	–
CC(=O)N1CCN(C(=O)C2(NC(=O)Nc3ccc(C)cc3)CCCCC2)CC1	inactive: 14.2%	–
CC(/C=C1\SC(=S)N(NC(=O)c2ccccc2C)C1=O)=C\c1ccccc1	inactive: 5.98%	–
CCN(CC)S(=O)(=O)c1ccc2c(c1)N(CC(=O)Nc1cccc(C#N)c1)C(=O)CO2	inactive: 2.84%	–
CN(c1ccccc1)S(=O)(=O)c1cccc(NC(=O)C2=NNC(=O)CC2)c1	inactive: -15.2%	–
CCc1ccc(OCC(=O)N2CCc3ccccc32)cc1	inactive: 12.2%	–
O=C(CCC1CCCN(C(=O)C2CCCC2)C1)NCc1ccc(F)c(F)c1 (stereo not given)	inactive: -0.85%	–

Compound	growth rescue (activation)	Potency
Cc1cc(NC(=O)CCC(=O)N(Cc2ccccc2)C(C(=O)NC2CCCC2)c2ccc(C)o2)no1 (stereo not given)	inactive: 17.8%	–
NC(=O)c1ccc(NC(=O)COC(=O)CC2CC3CCC2C3)cc1 (stereo not given)	inactive: 11%	–
CCn1nc(C)c(CN2CCC(n3nccc3NC(=O)Cc3ccccc3)CC2)c1C	inactive: 6.89%	–
CCOC(=O)c1c(CN2CCN(CCO)CC2)n(-c2ccccc2)c2cc(Br)c(O)cc12	inactive: 2%	–
COc1ccc(C2NCCc3c2[nH]c2ccccc32)cc1CSc1nc2ccccc2s1 (stereo not given)	inactive: -2.02%	–
COc1ccc(NC(=O)c2ccc(NC(=O)C3COc4ccccc4O3)cc2)c(OC)c1 (stereo not given)	inactive: 7.07%	–
O=C(NCc1ccccc1)c1cc(C2CCCN(S(=O)(=O)c3ccccc3)C2)on1 (stereo not given)	inactive: 5.69%	–
COc1cccc(CC(=O)Nc2ccc(S(=O)(=O)N3CCCCC3)cc2)c1	inactive: 16.5%	–
COc1ccc(CCNC(=O)c2ccc(Br)cc2)cc1	inactive: -4.1%	–
COc1ccc(CNC(=O)C2(c3ccc(Cl)cc3)CC2)cc1	inactive: -0.363%	–
COc1ccc(N2C(=O)NC(=O)C2=O)cc1	inactive: -5.5%	–
O=C(Cc1ccsc1)OCC(=O)c1ccccc1	inactive: 18.2%	–
O=C(COc1ccccc1[N+](=O)[O-])N/N=C/c1cccs1	inactive: 18%	–
O=C(c1cc(COc2c(F)cccc2F)on1)N1CCC(c2ccccc2F)C1 (stereo not given)	inactive: 13.6%	–
CN(C)c1ccc(CN2CCC(C(=O)NC(c3ccc(F)cc3)c3ccc4ccccc4n3)CC2)cc1 (stereo not given)	inactive: 13.7%	–
CCN(CC)c1ccc(C(=O)OCC(=O)Nc2ncccn2)cc1	inactive: 8.37%	–
O=C1N(c2ccccc2)C[C@@H]2C[C@@H](c3cccc4c3OCO4)N3CCC[C@@]123	inactive: -17%	–
O=C(NC1CCCC1)c1ccccc1-c1nc2ccccc2[nH]1	inactive: 19%	–
Cc1ccc(S(C)(=O)=O)cc1C(=O)N1CC(C(N)=O)Oc2ccccc21 (stereo not given)	inactive: -6.7%	–
O=c1[nH]c(CN2CCN(c3ccc(F)cc3)CC2)nc2ccccc12	inactive: 21.9%	–
COc1ccc(C2CC(c3cc(Br)ccc3F)n3nnnc3N2)cc1 (stereo not given)	inactive: 33.1%	–
CC(=O)c1c(Cl)nc2cccc3c2c1-c1ccccc1C3=O	inactive: -1.84%	–
CCOC(=O)c1cc[n+](CC(=O)c2ccc(F)cc2)cc1	inactive: 21.7%	–
O=C(NC(Cc1c[nH]c2ccccc12)C(=O)O)/C(=C\c1ccc2c(c1)OCO2)NC(=O)c1ccccc1 (stereo not given)	inactive: 16.7%	–
